For part of its entries the source gives two or more results. The other results are left out here. The source may hold further records. Results that share an entry repeat one measurement across runs, samples, wells, individuals or studies.
System: 171881-019-R-J1-PDC tumor spheroids, viability
Experiment: Anticancer human tumor 171881-019-R-J1-PDC patient-derived invasive breast carcinoma cell line growth inhibition [GQUAD]
Conditions: stronger effect = lower value, spheroids with HUVEC and MSC
From the text: DNA G-quadruplex Stabilizer Agents in Combinations in Complex Spheroids
A high-throughput screen of multi-cell type tumor spheroids was designed to identify active combinations of DNA G-quadruplex stabilizer agents and targeted small molecules. Complex spheroids include a stromal component modeled by human endothelial cells (HUVEC) and fibroblasts modeled by human mesenchymal stem cells (MSCs). The concentration ranges selected for each drug and investigational agent were based upon clinically achievable concentrations if the clinical Cmax of the agent was known.
Compounds. The drugs and investigational agents: pidnarulex (CX-5461; NSC782164), APTO-253 (NSC789042), BRACO-19 (NSC847499), peposertib (NSC802822), ceralasertib (NSC780249), elimusertib (NSC800525), camonsertib (NSC841442), AZD-1390 (NSC803789), olaparib (NSC753686), talazoparib (NSC767125), ART-558 (NSC835418), sotorasib (NSC818433), MRTX-1133 (NSC836407), SN-38 (NSC673596), topotecan (NSC609699), etoposide (NSC141540), doxorubicin (NSC123127), gemcitabine (NSC613327), 5-fluorouracil (NSC19893), paclitaxel (NSC125973), vemurafenib (NSC761431), panobinostat (NSC761190), R-306465 (JNJ-16241199; NSC773264), adavosertib (NSC754352), TP-3654 (NSC805149), carboplatin (NSC241240), KSQ-4279 (NSC840948), and staurosporine (NSC755774) were obtained from the National Cancer Institute (NCI) Developmental Therapeutics Program Chemical Repository (34). The FDA-approved anticancer drug set is available from the NCI Developmental Therapeutics Program. […] The stock solutions were prepared in dimethyl sulfoxide (DMSO, Sigma-Aldrich, St. Louis, MO, cat. D2650) at 800-fold the tested concentration and stored at -70 degrees C prior to their use. All drugs and investigational agents were tested over a range starting from a high concentration at or near the clinical Cmax and decreasing in half-log increments. If the clinical Cmax for an agent had not been determined, the highest concentration tested was 10 microM.
2.3 Cell Culture. All cells were maintained in an incubator at 37 degrees C and 5% CO2 with 95% humidity. The PDC lines were cultured according to standard operating procedures established by the NCI PDMR. All PDCs were thawed and cultured in Matrigel-coated flasks prepared with a working solution of 1X Ham's F-12 nutrient mix, without supplementation (Invitrogen, cat. 11765054), 100 U/mL penicillin-streptomycin (Invitrogen, cat. 15140122), and 2.5% Matrigel (Corning Inc., cat. 354248) for the first three passages. […]
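Further: spheroids exposed to compounds for 7 days; 100% = DMSO vehicle control viability.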

| SMILES | viability, T/C (compound alone 0.316 µM) | viability, T/C (compound alone 1 µM) | viability, T/C (compound alone 3.16 µM) |
| --- | --- | --- | --- |
| Cc1[nH]c2ccc(F)cc2c1-c1nc2c3cccnc3c3ncccc3c2[nH]1 | 96.6, 94.7, 98.3, 101, 107, 102, 98.1, 97.4, 84.9, 69.7, 83.6, 78.2% | 89.6, 83.9, 85, 90.5, 86, 92.2, 78.8, 83.7, 70.7, 60.4, 66.3, 61.6% | 31, 30.3, 19.5, 22, 36, 25.2, 23.7, 29.2, 8.94, 5.7, 7.31, 6.31% |
| CN(C)c1ccc(Nc2c3ccc(NC(=O)CCN4CCCC4)cc3nc3cc(NC(=O)CCN4CCCC4)ccc23)cc1 | 74, 44.3, 85.4, 77.4, 85.7, 88.6, 41.4, 45.8, 86.2, 51.7, 77.1, 80.8% | – | – |

— PubChem BioAssay AID2060498 (Molecular Pharmacology Branch, DTP, NCI, 2025)
